In all, about 310,000 compounds went through this assay and about 11,000 (3.5%) were called active. This list was built around the results that the source calls inconclusive (neither active nor inactive); the mix of calls is not that of the screen. The call rests on the fitted dose curve; in most records, active means well fitted inhibition curve with a large enough effect; inconclusive means small, poorly fitted or top-dose-only effect, or effect the other way; inactive means flat fitted curve, though single readings scatter. Potencies of inconclusive entries are left out as doubtful fits.
Assay: VP16 counterscreen qHTS for inhibitors of ROR gamma transcriptional activity;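 further: Gal4-VP16 expression switched on by copper sulfate through the metallothionein promoter; nearly all actives have a fitted effect of over 50% in size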
Details: Drosophila S2 Gal4-VP16 UAS-luciferase, luminescence, 20 h; activity, negative = inhibition: at 53.6 µM (top of the series)
On the % scale 0 is the no-effect control and ±100 the full control effect; potency means the concentration at half of the fitted maximal effect; tags describe the fitted curve by direction and shape.

Row | SMILES | Potency | activity, negative = inhibition
1 | COc1ccc(C2CC(c3ccccc3OC(C)=O)=NN2C(=O)/C=C/c2ccccc2)cc1OC (stereo not given) | inconclusive [activator, single point] | 
2 | CCOc1ccc(/C=C2\SC(=S)N(CCC(=O)N(CCO)c3ccccc3)C2=O)cc1 | inconclusive [inhibitor, partial curve] | 
3 | COc1ccccc1/C=C/CN1CCC(n2nccc2NC(=O)CCc2ccccc2)CC1 | inconclusive [inhibitor, single point] | 
4 | S=C1NCN(Cc2ccco2)CN1CCc1ccccc1 | active: 11.2 µM | 
5 | COc1ccc(Cl)cc1NC(=O)c1cc(-c2ccccc2O)n[nH]1 | inconclusive [inhibitor, single point] | 
6 | O=C1/C(=C/c2ccco2)Cc2ccccc21 | inconclusive [activator, single point] | 
7 | Cc1ccc(C)c(N2CCN(C(=O)C3CCCCN3S(=O)(=O)c3ccc(F)cc3)CC2)c1 (stereo not given) |  | inactive: -1.89%
8 | CCCCOc1ccc(S(=O)(=O)Nc2cc(OC)ccc2OC)cc1 | inconclusive [inhibitor, single point] | 
9 | CCOc1ccc(NC(=O)CSc2ncc(-c3ccc(F)cc3)n2Cc2ccco2)cc1 | inconclusive [inhibitor, full curve] | 
10 | CCN1CCN(C(=O)C2CCC(CNS(=O)(=O)c3ccccc3)CC2)CC1 (stereo not given) |  | inactive: -4.74%
11 | CCC(CC)NC(=O)Nc1ccc(C)cc1 |  | inactive: 2.71%
12 | Cc1ccc(-n2[nH]c(C)c(/C=N/NC(=O)c3ccc(O)cc3O)c2=O)cc1 | active: 7.08 µM | 
13 | CCCCn1c(=O)[nH]c(=O)c2c1nc(Cn1ncc(Cl)c(Cl)c1=O)n2CCC | active: 7.94 µM | 
14 | CS(=O)(=O)N(CC(=O)NCc1ccc(Cl)cc1)C1CCCCC1 |  | inactive: -9.28%
15 | CCOC(=O)c1nn(-c2ccc(C)c(C)c2)c(=O)c2c(N)scc12 |  | inactive: 0.095%
16 | Cc1ccc2c(c1)COc1c3ccc(C(=O)NCCO)cc3nn1-2 | inconclusive [inhibitor, partial curve] | 
17 | O=C(O)c1ccc(N/N=C/c2ccncc2)cc1 | inconclusive [inhibitor, partial curve] | 
18 | O=C(CSc1cccc[n+]1[O-])c1cc(Cl)ccc1Cl | inconclusive [inhibitor, single point] | 
19 | C/C(CC(=O)Nc1ccc(Cl)c(C(F)(F)F)c1)=N\NC(N)=S | inconclusive [inhibitor, single point] | 
20 | COc1cc2ccccc2cc1C(=O)Nc1sc2c(c1C(N)=O)CCN(C(C)C)C2 | active: 17.8 µM | 
21 | COC(=O)c1cc(CSc2nc3ccccc3[nH]2)oc1C | inconclusive [inhibitor, single point] | 
22 | CCN(CC)CCNC(=O)c1cc2c(s1)-c1ccccc1SC2 |  | inactive: -0.469%
23 | CCn1cc(CN2CCC(n3nccc3NC(=O)c3ccccc3OC)CC2)cn1 | inconclusive [inhibitor, partial curve] | 
24 | O=C(Nc1ccc2c(c1)OCO2)O[C@@H]1C[C@H]2CCC(=O)N3CC[C@@H](C1)[C@@H]23 |  | inactive: 6.34%
25 | COc1ccc(NC(=O)c2cc(CC(C)C)nc3ccccc23)cc1 |  | inactive: 26.3%

Row | SMILES | Potency | activity, negative = inhibition
26 | N#Cc1cc(C(=O)c2cc(Br)ccc2O)cn(C2CC2)c1=O | inconclusive [inhibitor, single point] | 
27 | NC(=S)N/N=C/C=C/c1ccccc1 | inconclusive [inhibitor, single point] | 
28 | CCOc1cc(-c2nc3cc(C)ccn3c2NCC2CCCO2)ccc1O (stereo not given) | inconclusive [activator, single point] | 
29 | Cc1cc(C)c2cc(C(=O)N3CCC(C(=O)c4ccc(F)cc4)CC3)[nH]c2c1 |  | inactive: -12.5%
30 | CCSc1ncc(Cl)c(C(=O)Nc2ccc(S(=O)(=O)Nc3onc(C)c3C)cc2)n1 |  | inactive: 6.5%
31 | O=C(CSc1cn(Cc2ccccc2)c2ccccc12)N1CCOCC1 | inconclusive [activator, single point] | 
32 | CC(c1ccncn1)N(C)Cc1nc(-c2ccc(C(F)(F)F)cc2)no1 (stereo not given) | active: 7.08 µM | 
33 | Cc1c(NC(=O)c2ccc(N(Cc3ccccc3)S(C)(=O)=O)cc2)c(=O)n(-c2ccccc2)n1C |  | inactive: 3.47%
34 | Cc1ccc(-n2cc[nH]c2=S)cc1C |  | inactive: -91.9%
35 | Cc1cccc(/C=C2/Sc3ccc(C(=O)N4CCOCC4)cc3NC2=O)c1 |  | inactive: -12.6%
36 | Cc1ccc(N(CCCCN2C(=O)c3ccccc3C2=O)C(=O)c2ccc(Cl)s2)cc1 |  | inactive: -3.96%
37 | CC(=O)c1c(C)[nH]c(C(=O)OCC(=O)Nc2cc(S(=O)(=O)N3CCCC3)ccc2Cl)c1C | inconclusive [inhibitor, single point] | 
38 | CCn1nc([N+](=O)[O-])c(C(C#N)c2nc3cc(C(F)(F)F)ccc3s2)c(Cl)c1=O (stereo not given) | inconclusive [inhibitor, single point] | 
39 | Clc1ccc(-c2nnc(-c3ccccc3)o2)c(Cl)c1 | inconclusive [inhibitor, partial curve, poor fit] | 
40 | O=C(Nc1ccc(NC(=O)c2ccco2)c(Cl)c1)c1ccc2c(c1)OCCO2 | inconclusive [inhibitor, partial curve] | 
41 | Cc1c(C(=O)c2no[n+]([O-])c2C(=O)c2cnn(C)c2C)cnn1C | active: 8.91 µM | 
42 | O=C1C=CC(=O)N1CCCCCCN1C(=O)C=CC1=O | active: 0.891 µM | 
43 | CN(C)c1ccc(/C=N\NC(=S)SCN2C(=O)C3CCC(C)(C2=O)C3(C)C)cc1 (stereo not given) | inconclusive [inhibitor, partial curve] | 
44 | COC(=O)[C@@H](NC(=O)c1ccccc1OC1CCN(S(C)(=O)=O)CC1)C(C)C |  | inactive: 8.89%
45 | CCCn1c(CCc2ccccc2)n[nH]c1=S | active: 17.8 µM | 
46 | O=C(COC(=O)c1cccc([N+](=O)[O-])c1)NC1CCCC1 |  | inactive: -9.09%
47 | CCOc1ccc(N2C(=O)S/C(=C\c3ccc(O)c(OCC)c3)C2=O)cc1 |  | inactive: -10.3%
48 | CC(=O)OC[C@@H]1O[C@H](CCON=C(C)C)C=C[C@@H]1OC(C)=O |  | inactive: -7.25% [at 10 µM]
49 | CCNC(=S)SCCOc1ccccc1C | inconclusive [inhibitor, single point] | 
50 | CCc1cc2c(N3CCN(c4ccccc4)CC3)ncnc2s1 | inconclusive [inhibitor, single point] | 

Row | SMILES | Potency | activity, negative = inhibition
51 | Cc1n[nH]c(=O)n1-c1ccc(OCc2ccccc2)cc1 | inconclusive [inhibitor, full curve, poor fit] | 
52 | COc1ccc(C(=O)CC(=O)C(=O)Nc2ccc(C)c(C)c2)cc1 | inconclusive [inhibitor, single point] | 
53 | COC(=O)CC1C(=O)NCCN1C(=S)NC(=O)C(c1ccccc1)c1ccccc1 (stereo not given) | active: 15.8 µM | 
54 | S=C(Nc1ccc(Br)cc1)NC1CCCCC1 | active: 17.8 µM | 
55 | CN(Cc1ccccc1)S(=O)(=O)c1ccc(NC(=S)NC(=O)C2CCCC2)cc1 | inconclusive [inhibitor, single point] | 
56 | CC(=O)c1ccc(NC(=O)C[n+]2ccc(N(C)C)cc2)cc1 |  | inactive: -1.96%
57 | Cc1nn(CCCC(=O)Nc2cc(Oc3ccccc3)cc([N+](=O)[O-])c2)c(C)c1[N+](=O)[O-] | inconclusive [inhibitor, single point] | 
58 | CN1C(=O)Cc2cc(S(=O)(=O)Nc3ccc(Cl)cc3)ccc21 |  | inactive: -16.6%
59 | CCCCc1nc2cc(C(=O)N3CCCCC3C(=O)OC)ccc2o1 (stereo not given) | inconclusive [inhibitor, single point] | 
60 | O=C(COc1ccc2c3c(c(=O)oc2c1)CCC3)N1CCCC1 | inconclusive [activator, single point] | 
61 | C/C(N)=C(/C#N)C(=O)CSc1nnc(SCc2ccc(Cl)cc2)s1 | inconclusive [inhibitor, single point] | 
62 | Clc1cccc(-c2nnc(-c3ccccc3)o2)c1 | inconclusive [inhibitor, single point] | 
63 | CCOC(=O)CNC(=O)CSc1nnc(-c2ccccc2)n1Cc1ccco1 | inconclusive [inhibitor, single point] | 
64 | Cc1ccc(C)c(-n2nnnc2Sc2nnnn2-c2ccccc2)c1 | inconclusive [inhibitor, single point] | 
65 | Cc1cc(C)n(C(=O)/C(C#N)=N/Nc2cc(Cl)cc(Cl)c2)n1 | inconclusive [inhibitor, single point] | 
66 | Cc1ccc(NC(=O)C2CCN(S(C)(=O)=O)CC2)cc1Cl |  | inactive: -0.5%
67 | [O-]/[N+](=C\c1ccccc1)[C@@H]1CCCC[C@@H]1/[N+]([O-])=C/c1ccccc1 |  | inactive: -0.57%
68 | CCNC(=S)N/N=C/c1cc(C)n(-c2ccc(Cl)cc2)c1C | active: 5.01 µM | 
69 | O=C(N/N=C/c1ccc(Br)s1)c1ccncc1 | active: 1 µM | 
70 | C=C(C)CNC(=S)N=Nc1c(O)[nH]c2ccc([N+](=O)[O-])cc12 | active: 12.6 µM | 
71 | COc1ccc(C(=O)NCCCNC(=O)c2ccc(C)nc2)cc1 |  | inactive: 2.23%
72 | Cc1cccc(NC(=S)N(Cc2ccco2)C(C)c2cccs2)c1 (stereo not given) | inconclusive [inhibitor, single point] | 
73 | CCOC(=O)c1c(C)[nH]c(C(=O)N/N=C/c2ccc(OC)c(OC)c2)c1C |  | inactive: -7.45%
74 | O=C(NC(=S)NCCCN1CCOCC1)c1cccc2ccccc12 | inconclusive [inhibitor, single point] | 
75 | Cc1cc(C)n(CC(O)Cn2c3ccccc3c3ccccc32)n1 (stereo not given) | inconclusive [inhibitor, single point] | 

Source: PubChem BioAssay AID2546 (National Center for Advancing Translational Sciences (NCATS), 2010)
